Counter-ions that a name gives are not always drawn. In all, about 1,900 compounds were measured (“cell viability of compound + 1 nM pemigatinib relative to pemigatinib-only (DMSO) wells”: median about 0.95, lowest 2% from about 0.22 on). Some of the results follow.

This experiment relates to PDC-DUC18828. Nature of the experiment: cell viability of compound + 1 nM pemigatinib relative to pemigatinib-only (DMSO) wells (fraction); PDC-DUC18828 is a patient-derived cholangiocarcinoma cell line; higher = less growth inhibition. To be noted: first compound 1 µM; pemigatinib concentration 1 nM; 72 h. As to the method:
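Selleck Bioactive library screen in the patient-derived FGFR2 fusion-positive ICC cell line PDC-DUC18828 (500 cells/well). Each compound was tested at 1 uM with 1 nM pemigatinib, in triplicate, for 72 h. Viability was read by CellTiter-Glo and normalised to plate DMSO controls. Value is the paper's averaged normalised viability.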
As for `Cc1c(-c2ccccc2)oc2c(C(=O)OCCN3CCCCC3)cccc2c1=O` [Flavoxate HCl] + CCN1C(=O)N(c2c(F)c(OC)cc(OC)c2F)Cc2cnc3[nH]c(CN4CCOCC4)cc3c21 [pemigatinib], the cell viability amounted to 0.975.
Next, `CCN(CC)CCOC(=O)c1ccc(N)cc1Cl` [Chloroprocaine HCl] + CCN1C(=O)N(c2c(F)c(OC)cc(OC)c2F)Cc2cnc3[nH]c(CN4CCOCC4)cc3c21 [pemigatinib]: 1.04; `C#Cc1cccc(Nc2ncnc3cc(OCCOC)c(OCCOC)cc23)c1` [Erlotinib HCl (OSI-744)] + CCN1C(=O)N(c2c(F)c(OC)cc(OC)c2F)Cc2cnc3[nH]c(CN4CCOCC4)cc3c21 [pemigatinib]: 0.838; `C#Cc1cccc(Nc2ncnc3cc(OCCOC)c(OCCOC)cc23)c1` [Erlotinib] + CCN1C(=O)N(c2c(F)c(OC)cc(OC)c2F)Cc2cnc3[nH]c(CN4CCOCC4)cc3c21 [pemigatinib]: 0.817.
Consider `COc1ccc(Cn2ccc3ccc(C(=O)NO)cc32)cc1` + CCN1C(=O)N(c2c(F)c(OC)cc(OC)c2F)Cc2cnc3[nH]c(CN4CCOCC4)cc3c21 [pemigatinib], for which the cell viability came out at 0.949.
For `CC#CC(=O)N1CC[C@@H](n2c(=O)n(-c3ccc(Oc4ccccc4)cc3)c3c(N)ncnc32)C1` + CCN1C(=O)N(c2c(F)c(OC)cc(OC)c2F)Cc2cnc3[nH]c(CN4CCOCC4)cc3c21 [pemigatinib], the cell viability stood at 0.853.
Then `Cc1onc(-c2ccccc2Cl)c1C(=O)N[C@@H]1C(=O)N2[C@@H]1SC(C)(C)[C@@H]2C(=O)O` [Cloxacillin Sodium] + CCN1C(=O)N(c2c(F)c(OC)cc(OC)c2F)Cc2cnc3[nH]c(CN4CCOCC4)cc3c21 [pemigatinib], with 0.952.
Then `NC(=O)c1cnc(N[C@@H]2CCCC[C@@H]2N)nc1Nc1cccc(-n2nccn2)c1` + CCN1C(=O)N(c2c(F)c(OC)cc(OC)c2F)Cc2cnc3[nH]c(CN4CCOCC4)cc3c21 [pemigatinib], with 0.825.
Next, `CN[C@@H]1[C@H](O)[C@H](NC)[C@H]2O[C@@]3(O)C(=O)C[C@@H](C)O[C@H]3O[C@@H]2[C@H]1O` [Spectinomycin HCl] + CCN1C(=O)N(c2c(F)c(OC)cc(OC)c2F)Cc2cnc3[nH]c(CN4CCOCC4)cc3c21 [pemigatinib]: 0.958; `NS(=O)(=O)c1cc2c(cc1Cl)NC(C(Cl)Cl)NS2(=O)=O` (centres undefined) [Trichlormethiazide] + CCN1C(=O)N(c2c(F)c(OC)cc(OC)c2F)Cc2cnc3[nH]c(CN4CCOCC4)cc3c21 [pemigatinib]: 0.952; `C[S+]([O-])c1ccc(-c2nc(-c3ccc(F)cc3)c(-c3ccncc3)[nH]2)cc1` (centres undefined) + CCN1C(=O)N(c2c(F)c(OC)cc(OC)c2F)Cc2cnc3[nH]c(CN4CCOCC4)cc3c21 [pemigatinib]: 1.05.
With `COc1cc2c(Oc3ccc(NC(=O)C4(C(=O)Nc5ccc(F)cc5)CC4)cc3F)ccnc2cc1OCCCN1CCOCC1` + CCN1C(=O)N(c2c(F)c(OC)cc(OC)c2F)Cc2cnc3[nH]c(CN4CCOCC4)cc3c21 [pemigatinib], the cell viability stood at 0.679.
Then `COc1ccccc1Oc1c(NS(=O)(=O)c2ccc(C(C)(C)C)cc2)nc(-c2ncccn2)nc1OCCO` [Bosentan] + CCN1C(=O)N(c2c(F)c(OC)cc(OC)c2F)Cc2cnc3[nH]c(CN4CCOCC4)cc3c21 [pemigatinib], with 0.951; and `COc1ccccc1Oc1c(NS(=O)(=O)c2ccc(C(C)(C)C)cc2)nc(-c2ncccn2)nc1OCCO` [Bosentan Hydrate] + CCN1C(=O)N(c2c(F)c(OC)cc(OC)c2F)Cc2cnc3[nH]c(CN4CCOCC4)cc3c21 [pemigatinib], with 1.
As for `CN1CCC[C@@H]1Cc1c[nH]c2ccc(CCS(=O)(=O)c3ccccc3)cc12` [Eletriptan HBr] + CCN1C(=O)N(c2c(F)c(OC)cc(OC)c2F)Cc2cnc3[nH]c(CN4CCOCC4)cc3c21 [pemigatinib], the cell viability is 0.957.
Regarding `C=C1/C(=C\C=C2/CCC[C@]3(C)[C@@H]([C@H](C)CCCC(C)C)CC[C@@H]23)C[C@@H](O)C[C@@H]1O` [Alfacalcidol] + CCN1C(=O)N(c2c(F)c(OC)cc(OC)c2F)Cc2cnc3[nH]c(CN4CCOCC4)cc3c21 [pemigatinib], the cell viability was 1.01.
Next, `O=C(N[C@H](CO)[C@H](O)c1ccc([N+](=O)[O-])cc1)C(Cl)Cl` [Chloramphenicol] + CCN1C(=O)N(c2c(F)c(OC)cc(OC)c2F)Cc2cnc3[nH]c(CN4CCOCC4)cc3c21 [pemigatinib]: 0.947.
Next, `O=C(O)CCNC(=O)c1ccccc1` [Betamipron] + CCN1C(=O)N(c2c(F)c(OC)cc(OC)c2F)Cc2cnc3[nH]c(CN4CCOCC4)cc3c21 [pemigatinib]: 0.989.
With `CO[C@H]1/C=C\C=C(/C)C(=O)NC2=CC(=O)C(NCCN(C)C)=C(C[C@@H](C)C[C@H](OC)[C@H](O)[C@@H](C)/C=C(\C)[C@@H]1OC(N)=O)C2=O` [17-DMAG (Alvespimycin) HCl] + CCN1C(=O)N(c2c(F)c(OC)cc(OC)c2F)Cc2cnc3[nH]c(CN4CCOCC4)cc3c21 [pemigatinib], the cell viability amounted to 0.359.
For the compound `CCC[C@@H]1C[C@@H](C(=O)N[C@@H]([C@H]2O[C@H](SC)[C@H](O)[C@@H](O)[C@H]2O)[C@H](C)Cl)N(C)C1` [Clindamycin HCl] + CCN1C(=O)N(c2c(F)c(OC)cc(OC)c2F)Cc2cnc3[nH]c(CN4CCOCC4)cc3c21 [pemigatinib], the cell viability turned out to be 0.935.
Next, `CCC[C@@H]1C[C@@H](C(=O)N[C@@H]([C@H]2O[C@H](SC)[C@H](O)[C@@H](O)[C@H]2O)[C@H](C)Cl)N(C)C1` [Clindamycin] + CCN1C(=O)N(c2c(F)c(OC)cc(OC)c2F)Cc2cnc3[nH]c(CN4CCOCC4)cc3c21 [pemigatinib]: 0.907; `CC1=NN(c2ccccc2)C(=O)C1` [Edaravone] + CCN1C(=O)N(c2c(F)c(OC)cc(OC)c2F)Cc2cnc3[nH]c(CN4CCOCC4)cc3c21 [pemigatinib]: 1.
On to `CCOc1ccc2ccccc2c1C(=O)N[C@@H]1C(=O)N2[C@@H]1SC(C)(C)[C@@H]2C(=O)O` [Nafcillin Sodium] + CCN1C(=O)N(c2c(F)c(OC)cc(OC)c2F)Cc2cnc3[nH]c(CN4CCOCC4)cc3c21 [pemigatinib], for which the cell viability amounted to 0.938.
For the compound `CCN(CC)CCNC(=O)c1cc(Cl)c(N)cc1OC` [MetoclopraMide HCl] + CCN1C(=O)N(c2c(F)c(OC)cc(OC)c2F)Cc2cnc3[nH]c(CN4CCOCC4)cc3c21 [pemigatinib], the cell viability worked out at 0.959.

These data come from the supplement of paper PMC9588766.
